Data reported in paper PMC4336329 (PLoS ONE, 2015).
The campaign covered roughly 310,000 compounds. About 14,000 (4.5%) showed an effect of 50% or more. The effect is printed as a negative number. Some of the results follow.

What follows are molecules tested against human ether-à-go-go-related gene (hERG) potassium channel (human, UniProt Q12809) (assay: primary screen, population patch clamp on CHO cells stably expressing hERG).
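Note: peak tail current of the secondary pulse compared with the same well before compound.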

Chain of human ether-à-go-go-related gene (hERG) potassium channel (Q12809 whole entry, looked up): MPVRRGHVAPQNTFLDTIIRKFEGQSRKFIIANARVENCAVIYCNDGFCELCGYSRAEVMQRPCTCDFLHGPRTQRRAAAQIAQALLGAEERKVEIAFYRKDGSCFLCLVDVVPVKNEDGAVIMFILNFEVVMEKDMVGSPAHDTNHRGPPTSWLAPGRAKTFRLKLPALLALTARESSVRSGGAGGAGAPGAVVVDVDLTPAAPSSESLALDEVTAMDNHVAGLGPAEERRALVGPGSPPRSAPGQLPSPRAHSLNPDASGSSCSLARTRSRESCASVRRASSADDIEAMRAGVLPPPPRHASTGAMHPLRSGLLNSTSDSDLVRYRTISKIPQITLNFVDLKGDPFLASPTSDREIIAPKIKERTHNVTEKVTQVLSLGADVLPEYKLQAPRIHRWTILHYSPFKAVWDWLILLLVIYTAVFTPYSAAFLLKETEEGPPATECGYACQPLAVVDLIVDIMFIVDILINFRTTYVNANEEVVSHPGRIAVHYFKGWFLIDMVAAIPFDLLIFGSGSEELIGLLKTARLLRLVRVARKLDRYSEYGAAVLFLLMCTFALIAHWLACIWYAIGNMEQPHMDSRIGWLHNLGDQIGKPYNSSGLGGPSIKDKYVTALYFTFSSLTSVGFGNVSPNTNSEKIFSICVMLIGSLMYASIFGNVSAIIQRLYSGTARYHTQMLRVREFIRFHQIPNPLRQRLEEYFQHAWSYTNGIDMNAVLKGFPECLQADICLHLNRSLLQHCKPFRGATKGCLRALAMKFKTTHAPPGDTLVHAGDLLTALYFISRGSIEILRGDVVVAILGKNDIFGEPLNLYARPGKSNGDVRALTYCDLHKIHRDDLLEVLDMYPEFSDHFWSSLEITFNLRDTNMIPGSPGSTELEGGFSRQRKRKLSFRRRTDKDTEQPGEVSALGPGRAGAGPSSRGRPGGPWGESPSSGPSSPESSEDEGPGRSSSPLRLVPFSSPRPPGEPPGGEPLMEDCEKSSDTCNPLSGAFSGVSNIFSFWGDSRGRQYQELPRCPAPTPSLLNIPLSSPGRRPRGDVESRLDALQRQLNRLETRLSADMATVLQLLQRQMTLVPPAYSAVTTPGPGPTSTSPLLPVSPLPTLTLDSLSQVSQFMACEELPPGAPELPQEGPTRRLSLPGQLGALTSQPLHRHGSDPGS

Compared with `COC(=O)c1c(NC(=O)c2c(Cl)cnn2C)sc(C)c1C`, `COC(=O)c1ccc(NC(=O)C2CC(=O)N(c3cc(C)ccc3C)C2)cc1` (stereo not drawn) is lower in “hERG current change (%, negative = inhibition) at 10uM” value: 11.1% for the first, 8.48% for the second.

Compared with `CN1CCN(CC(=O)Nc2ccc(Cl)cc2C(=O)c2ccccc2)CC1`, `Cc1ccc(Cl)cc1N1CCN(C(=O)Cc2cn(C)c3ccccc23)CC1` is higher in “hERG current change (%, negative = inhibition) at 10uM” value: -77.2% for the first, 3.85% for the second.

Going from `Clc1ccc(-c2nc(Cc3ccccc3)no2)cc1` to `O=[N+]([O-])c1ccc(OCC2CC(c3ccccc3)=NO2)cc1` (stereo not drawn), the “hERG current change (%, negative = inhibition) at 10uM” value falls from 11.9% to 9.63%.

First: COc1ccccc1CNC(=O)Cn1c(=O)c2cccn2c2cccnc21
Second: Cc1ccccc1-n1c(SCC(=O)NCc2cccs2)nc2ccccc2c1=O
The “hERG current change (%, negative = inhibition) at 10uM” value of the first is higher: 6.03% for the first, -17.4% for the second.

Going from `O=C(CCC(=O)c1cccs1)NCc1ccc(F)cc1` to `CCc1ccc(C(=O)COC(=O)CNC(=O)c2cccs2)cc1`, the “hERG current change (%, negative = inhibition) at 10uM” value rises from -25.1% to -6.77%.

Compared with `COc1ccc(/C=C/C(=O)NCCCN2CCOCC2)cc1`, `CCc1ccc2[nH]c(=O)c(CN(CCCN3CCOCC3)C(=O)Nc3ccccc3)cc2c1` is lower in “hERG current change (%, negative = inhibition) at 10uM” value: -29.4% for the first, -54.2% for the second.

First: CC(C)c1ccccc1NS(C)(=O)=O
Second: CC(C)(C)C(=O)Nc1ccccc1C(=O)NCCCn1ccnc1
The “hERG current change (%, negative = inhibition) at 10uM” value of the first is higher: 21.2% for the first, 3.44% for the second.

Going from `Cc1ccc(-c2nnc(-c3cc(C)on3)o2)cc1` to `C/C(N)=C(/C#N)C(=O)CSc1nnc(-c2ccc3c(c2)OCO3)o1`, the “hERG current change (%, negative = inhibition) at 10uM” value rises from 19.6% to 21.2%.

First: CC(=O)NCc1ccc(-c2csc(NC(=O)CCCc3nc4ccccc4c(=O)[nH]3)n2)cc1
Second: COc1ccc(C2=NN(c3nc4ccccc4s3)C(=O)C2)cc1
The “hERG current change (%, negative = inhibition) at 10uM” value of the first is lower: 4.05% for the first, 5.36% for the second.

First: O=C(C1CC1)N1CCC(C(O)(c2ccccc2)c2ccccc2)CC1
Second: O=C(c1ccc(-c2nc3ccccc3s2)o1)N1CCN(c2ccccc2O)CC1
The “hERG current change (%, negative = inhibition) at 10uM” value of the first is lower: -13.8% for the first, 11.6% for the second.

First: CC1(C)Cc2c(c(=S)nc(-c3ccccc3)n2CCCN2CCOCC2)CO1
Second: COc1cccc(-c2nc(CS(=O)CC(=O)N3CCC4(CC3)OCCO4)c(C)o2)c1 (stereo not drawn)
The “hERG current change (%, negative = inhibition) at 10uM” value of the first is lower: 1.98% for the first, 8.65% for the second.

Compared with `O=S(=O)(Nc1cccc(S(=O)(=O)N2CCCCCC2)c1)c1ccccc1`, `Cc1ccc(NC(=O)CN(C)C(=O)c2cccc(S(=O)(=O)N3CCCC3)c2)cc1` is higher in “hERG current change (%, negative = inhibition) at 10uM” value: -24% for the first, 5.72% for the second.

Compared with `O=C(CCc1n[nH]c(=O)[nH]c1=O)Nc1cccc([N+](=O)[O-])c1`, `COc1ccc(C(=O)CN2CCN(S(=O)(=O)c3cccc([N+](=O)[O-])c3)CC2)cc1OC` is lower in “hERG current change (%, negative = inhibition) at 10uM” value: 28.3% for the first, -5.28% for the second.

Compared with `CC1CCCN(C(=O)CCS(=O)(=O)c2ccc3c(c2)NC(=O)C(C)S3)C1` (stereo not drawn), `O=C(CCN1C(=O)C2C3C=CC(C3)C2C1=O)N1CCN(c2cccc(Cl)c2)CC1` (stereo not drawn) is lower in “hERG current change (%, negative = inhibition) at 10uM” value: -1.82% for the first, -38.4% for the second.

Going from `COc1ccc(OC)c(S(=O)(=O)N2CCN(Cc3ccccc3)CC2)c1` to `COc1ccc(N2CCN(C(C)C(=O)N(C)Cc3ccccc3)CC2)cc1` (stereo not drawn), the “hERG current change (%, negative = inhibition) at 10uM” value falls from 2.05% to -17.3%.

First: CCCN1C(=O)C2(/C(=C(\O)c3ccc4c(c3)OCCO4)C(=O)C(=O)N2CCCOC)c2ccccc21 (stereo not drawn)
Second: CCOc1ccc(C(=O)Nc2ccc3c(c2)OCCO3)cc1OC
The “hERG current change (%, negative = inhibition) at 10uM” value of the first is lower: -4.06% for the first, -0.0473% for the second.

Compared with `Cn1c(=O)oc2cc(S(=O)(=O)Nc3ccc(O)cc3)ccc21`, `O=C(O)c1cccc(NS(=O)(=O)c2ccc3c(c2)OCCCO3)c1` is higher in “hERG current change (%, negative = inhibition) at 10uM” value: 14.2% for the first, 23.3% for the second.

First: Cc1c(C(=O)NC(Cc2ccccc2)c2nc3ccccc3[nH]2)cccc1[N+](=O)[O-] (stereo not drawn)
Second: O=C(O)CC(c1cccc2ccccc12)N1Cc2ccccc2C1=O (stereo not drawn)
The “hERG current change (%, negative = inhibition) at 10uM” value of the first is higher: 11.7% for the first, 4.25% for the second.

Going from `Cc1ccc(CNC(=O)C(=O)NCC2OCCN2C(=O)c2cccs2)cc1` (stereo not drawn) to `Cc1c(Cl)cccc1NC(=O)COC(=O)c1ccc(CN2CCCC2=O)cc1`, the “hERG current change (%, negative = inhibition) at 10uM” value falls from -14.6% to -46%.

Going from `COc1ccc(S(=O)(=O)NC(Cc2cnc[nH]2)C(=O)O)cc1` (stereo not drawn) to `COc1ccc(NC(=O)CN(C)C(=O)Cc2ccsc2)cc1`, the “hERG current change (%, negative = inhibition) at 10uM” value falls from 21.9% to 13.8%.

Compared with `COc1cc(/C=N/Nc2nc(Nc3ccccc3)nc(-n3nc(C)cc3C)n2)cc(OC)c1OC`, `COc1cccc(Nc2nc(N)nc(CCl)n2)c1` is lower in “hERG current change (%, negative = inhibition) at 10uM” value: 1.71% for the first, 0.476% for the second.

Compared with `Fc1ccccc1N1CCN(CC2CCCCC2)CC1`, `COc1ccccc1N1CCN(C(=O)Cn2nnc(-c3cccs3)n2)CC1` is lower in “hERG current change (%, negative = inhibition) at 10uM” value: -1.99% for the first, -3% for the second.

First: Cc1ccc(SCCN2CCN(CCc3ccccc3)CCC2=O)cc1
Second: Cc1ccc(/C=C/C2=NN(Cc3ccccc3Cl)C(=O)CC2)cc1
The “hERG current change (%, negative = inhibition) at 10uM” value of the first is lower: -69.6% for the first, -4.44% for the second.

Going from `CC(=O)c1ccc(NC(=O)NC2CCCCCCC2)cc1` to `CC(=O)Nc1ccc(CN2CCN(CC(C)C)C(CCO)C2)cc1` (stereo not drawn), the “hERG current change (%, negative = inhibition) at 10uM” value falls from 10.2% to 2.2%.

Compared with `Cc1ccc(O)c(N=Nc2ccc(S(=O)(=O)N3CCOCC3)cc2)c1`, `CCCCCc1nnc(NC(=O)c2cccc(S(=O)(=O)N3CCOCC3)c2)s1` is lower in “hERG current change (%, negative = inhibition) at 10uM” value: 4.01% for the first, -41.8% for the second.

Going from `Cc1ccc(C(=O)COc2ccc3ccc(=O)oc3c2)cc1` to `CCOc1ccc(NS(=O)(=O)c2cc(C(=O)N(CC)CC(=O)NCc3cccs3)ccc2C)cc1`, the “hERG current change (%, negative = inhibition) at 10uM” value falls from 47.3% to -18.5%.

Going from `CNC(=O)c1ccc(S(=O)(=O)c2ccc(Cl)cc2)c(NC(C)=O)c1` to `CC(C)(C)NS(=O)(=O)c1ccc(OCC(=O)Nc2ccc3c(c2)OCCO3)cc1`, the “hERG current change (%, negative = inhibition) at 10uM” value falls from 18% to -0.883%.

First: COCCNC(=O)NC(=O)COC(=O)c1ccc2[nH]c3c(c2c1)CCCC3
Second: Cc1oc2c(c1C(=O)NCc1cc(C(=O)O)co1)CCCC2
The “hERG current change (%, negative = inhibition) at 10uM” value of the first is higher: 7.91% for the first, 4.24% for the second.

Compared with `CCCCn1c(N)c(N(CCC(C)C)C(=O)c2ccc([N+](=O)[O-])s2)c(=O)[nH]c1=O`, `Cc1nnc(SCCn2c(Br)nc3c2c(=O)[nH]c(=O)n3C)s1` is higher in “hERG current change (%, negative = inhibition) at 10uM” value: -51.1% for the first, 19.8% for the second.

First: Cc1sc2ncnc(OCC(=O)NCC3CCCO3)c2c1C (stereo not drawn)
Second: O=C(NCC1CCCO1)C1CCN(S(=O)(=O)c2ccccc2)CC1 (stereo not drawn)
The “hERG current change (%, negative = inhibition) at 10uM” value of the first is higher: 17.4% for the first, 2.93% for the second.

Compared with `C=CCNC(=O)c1ccccc1NC(=O)COc1ccccc1`, `Cc1c(Cl)cccc1NC(=O)C1Cc2ccccc2CN1C(=O)c1ccccc1` (stereo not drawn) is higher in “hERG current change (%, negative = inhibition) at 10uM” value: -12.3% for the first, -4.38% for the second.

First: CCc1ccc(Oc2nc([N+](=O)[O-])nn2C)cc1
Second: COc1ccc(C(=O)Nc2nc3ccc4nc(C)sc4c3s2)cc1
The “hERG current change (%, negative = inhibition) at 10uM” value of the first is lower: 5.87% for the first, 9.89% for the second.

Compared with `COc1ccc(OC)c(C2=NO[C@@H]3C(=O)N(c4cc(Cl)ccc4OC)C(=O)[C@H]23)c1`, `COc1ccc(/C(C)=N/NS(=O)(=O)c2cc(C)ccc2C)c(OC)c1` is lower in “hERG current change (%, negative = inhibition) at 10uM” value: 2.53% for the first, -15.3% for the second.

Going from `COc1ccccc1C(=O)/C=C/c1ccc(N2CCCCC2)c([N+](=O)[O-])c1` to `COc1ccccc1/C=C(/NC(=O)c1ccc(Cl)cc1Cl)C(=O)O`, the “hERG current change (%, negative = inhibition) at 10uM” value rises from -26.3% to 22.2%.

Going from `CC1(C)CC(=O)c2cnc(NC(=O)CSC(=S)N3CCCCC3)nc2C1` to `Cc1cc(C)c(C(=O)OCC(=O)Nc2cccc(S(=O)(=O)N3CCCCC3)c2)c(C)c1`, the “hERG current change (%, negative = inhibition) at 10uM” value rises from -26.2% to -4.25%.

Compared with `Cc1ccc(C(=O)C2=C(O)C(=O)N(Cc3cccnc3)C2c2ccc(OC(C)C)cc2)o1` (stereo not drawn), `Cc1cc(=O)oc2c3c(cc(OCC(=O)N[C@@H](Cc4ccccc4)C(=O)O)c12)OC(C)(C)CC3` is lower in “hERG current change (%, negative = inhibition) at 10uM” value: 14.9% for the first, -0.905% for the second.

First: Cl.O=C(NC(=S)N1CCN(Cc2ccccc2)CC1)c1ccco1
Second: O=C(NCCc1ccccc1)c1ccc2c(c1)N(Cc1ccccc1)CCS2
The “hERG current change (%, negative = inhibition) at 10uM” value of the first is lower: 1.87% for the first, 8.75% for the second.

Compared with `Cc1nnc2ccc(-c3cccc(NC(=O)Cc4cccs4)c3)nn12`, `CCS(=O)(=O)Nc1cccc(-c2cc(-c3ccccc3)c3cc(C)ccc3n2)c1` is higher in “hERG current change (%, negative = inhibition) at 10uM” value: -25.9% for the first, 4.97% for the second.

Going from `Cc1ccc2nc(C3CCN(C(=O)c4ccco4)CC3)[nH]c2c1.Cl` to `CCc1c(C)sc2nc3c(C(=O)N4CCOCC4)cc(C(=O)c4ccccc4O)cn3c(=O)c12`, the “hERG current change (%, negative = inhibition) at 10uM” value rises from -23.8% to -10.7%.

Compared with `CCc1sc(C(=O)NNC(=O)CNC(=O)c2ccccc2F)cc1C`, `CSc1ccccc1OCc1cc(C(=O)NC(C)c2cnn(C)c2)no1` (stereo not drawn) is lower in “hERG current change (%, negative = inhibition) at 10uM” value: -1.92% for the first, -19.4% for the second.

Compared with `O=C(Nc1ccc(F)cc1F)c1noc2c1CCC2`, `NC(=S)Nc1ccc(F)c(F)c1F` is lower in “hERG current change (%, negative = inhibition) at 10uM” value: -0.989% for the first, -7.17% for the second.

First: COc1cc(NC(=O)c2nccn2C)cc(C(=O)Nc2cccc(C(F)(F)F)c2)c1
Second: CN(C)C(CNC(=S)Nc1cccc(Cl)c1)c1cccnc1 (stereo not drawn)
The “hERG current change (%, negative = inhibition) at 10uM” value of the first is lower: 5.31% for the first, 8.69% for the second.

Going from `O=C(NCc1ccncc1)C1CCCN(S(=O)(=O)Cc2ccccc2)C1` (stereo not drawn) to `C/C=C(/C)C(=O)Nc1cccc(C2=NOC3(C2)C[C@@H](C(N)=O)N(C(=O)C2(C)CC2)C3)c1` (stereo partly drawn), the “hERG current change (%, negative = inhibition) at 10uM” value rises from 3.48% to 7.47%.

In the case of `Cc1cccc(N=Cc2cc(Br)cc(Cl)c2O)c1`, the “hERG current change (%, negative = inhibition) at 10uM” value is reported as 22%.
